Test results published in PubChem BioAssay (NCATS).
The other results are listed elsewhere or left out. Further columns of the screen follow, without active or inactive calls. Words in brackets tell the shape of the fitted curve; partial curves, single points and poor fits give uncertain potencies.
Tags describe the fitted curve by direction and shape.

Assay: qHTS drug screen for cell cycle checkpoint inhibitors in PARPi-resistant BRCA-mutant ovarian cancer cell lines. (AID 1963452)
Conditions: PEO1/OlaR viability, CellTiter-Glo luminescence, 96 h; measured here: PEO1 parental viability
In short: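 PEO1, PEO4 and PEO1/OlaR ovarian cancer cells, 600 per well, exposed 96 h at 37C to a dilution series. Viability read by CellTiter-Glo luminescence, normalized to DMSO and empty wells; activity summarized as Z-AUC.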
In the case of `CN(Cc1ccccc1)C(=O)c1ccc(S(=O)(=O)Nc2ccccc2)cc1`, the AC50 is reported as 0.138 µM [falling, full curve].
For `O=C(O)CCCCN(CCc1ccccc1OCc1ccc(CCc2ccccc2)cc1)Cc1ccc(C(=O)O)cc1`, the AC50 was 21.9 µM [falling, single point].
In the case of `Cc1cnc(C(=O)O)c[n+]1[O-]`, the AC50 is reported as 15.5 µM [rising, partial curve].
For `Cc1cccc(CC(=O)N2CCc3c2ccc(-c2cn(C)c4ncnc(N)c24)c3F)n1`, the AC50 was 8.71 µM [falling, partial curve].
In the case of `CN1CCN(C(=O)c2ccc3cc(CCNc4ncnc5ccc(C#N)cc45)ccc3c2)CC1`, the AC50 is reported as 3.89 µM [falling, partial curve].
With `CC(C)NCCCn1c(Sc2cc(Cl)cc(Cl)c2)nc2c(N)ncnc21` the AC50 was 0.0616 µM [falling, full curve].
With `C=CCNC1=C2CC(C)CC(OC)C(O)C(C)/C=C(\C)C(OC(N)=O)C(OC)/C=C/C=C(\C)C(=O)NC(=CC1=O)C2=O` (stereo not given) the AC50 was 0.155 µM [falling, full curve].
With `O=C(Nc1cnccc1Cl)N1CCN(Cc2ccc3c(c2)OC(F)(F)O3)CC1` the AC50 was 19.5 µM [falling, partial curve].
In the case of `O=C(NCC(=O)N1CC[C@H](NC2CCC(O)(c3ccc(-c4ncccn4)cn3)CC2)C1)c1cccc(C(F)(F)F)c1` (stereo not given in full), the AC50 is reported as 0.436 µM [rising, single point].
For `NS(=O)(=O)Oc1ccc2c3c(c(=O)oc2c1)CCCCC3`, the AC50 was 19.5 µM [falling, single point].
For `CC1(N)CCN(c2cccnc2NC(=O)c2nc(-c3ncccc3C(F)(F)F)cnc2N)CC1`, the AC50 was 4.9 µM [falling, partial curve].
With `OCc1ccccc1O[C@@H]1O[C@H](CO)[C@@H](O)[C@H](O)[C@H]1O` the AC50 was 21.9 µM [rising, partial curve, poor fit].
For `NC(=O)c1ccc2[nH]ccc2c1`, the AC50 was 27.5 µM [rising, single point].
In the case of `CCCCC[C@H](O)C=C[C@H]1[C@H](O)CC(=O)[C@H]1CC=CCCCC(=O)O`, the AC50 is reported as 17.4 µM [falling, single point].
With `O=C(Nc1ccc(S(=O)(=O)N2CCOCC2)cc1)c1cc(Cl)ccc1NS(=O)(=O)c1ccc(Cl)s1` the AC50 was 24.5 µM [falling, single point].
For `NS(=O)(=O)c1cc(Cl)c(Cl)c(S(N)(=O)=O)c1`, the AC50 was 3.89 µM [rising, full curve, poor fit].
In the case of `CN1C(=O)C(Cc2c[nH]c3ccccc23)NC1=S` (stereo not given), the AC50 is reported as 0.138 µM [rising, full curve, poor fit].
For `COc1ccc2c(c1)C(c1ccc(F)cc1)=C(CN1CCCC1)CO2`, the AC50 was 0.309 µM [rising, full curve, poor fit].
With `Nc1n[n+]([O-])c2ccccc2[n+]1[O-]` the AC50 was 24.5 µM [falling, single point].
With `CCOC(=O)[C@@]1(CCCCCCOc2ccc(Cl)cc2)CO1` the AC50 was 17.4 µM [falling, single point].
In the case of `N=C1CCCN1Cc1[nH]c(=O)[nH]c(=O)c1Cl`, the AC50 is reported as 1.1 µM [rising, full curve, poor fit].
For `COC(=O)N(CC(=O)O)Cc1cccc(OCc2nc(-c3ccc(Cl)cc3)oc2C)c1`, the AC50 was 21.9 µM [falling, single point].

Same assay, conditions: PEO1/OlaR viability, CellTiter-Glo luminescence, 96 h; measured here: PEO4 viability
For `COc1ccc2c(c1)CC[C@@H]1[C@@H]2CC[C@]2(C)[C@@H](NCCCCCCN3C(=O)C=CC3=O)CC[C@@H]12`, the AC50 was 2.75 µM [rising, partial curve, poor fit].
For `NS(=O)(=O)NCCNc1nonc1C(=Nc1ccc(F)c(Br)c1)NO`, the AC50 was 5.49 µM [falling, partial curve, poor fit].
In the case of `COc1c(N2CCNC(C)C2)c(F)cc2c(=O)c(C(=O)O)cn(C3CC3)c12` (stereo not given), the AC50 is reported as 24.5 µM [falling, single point].
In the case of `CNc1nc(Nc2cnn([C@H]3CCN(C4COC4)C[C@@H]3F)c2Cl)ncc1C(F)(F)F`, the AC50 is reported as 27.5 µM [falling, single point].
With `O=C(Nc1cc(Oc2cc(F)c(NC(=O)C3(C(=O)Nc4ccc(F)cc4)CC3)cc2F)ccn1)C1CC1` the AC50 was 21.9 µM [falling, single point].
With `Cc1c(C(=O)Nc2ccc(Oc3ccnc4[nH]cc(-c5ccccc5)c34)c(F)c2)c(=O)n(-c2ccc(F)cc2)n1C` the AC50 was 6.16 µM [falling, partial curve, poor fit].
In the case of `CC[C@H]1OC(=O)[C@H](C)C(=O)[C@H](C)[C@@H](O[C@H]2O[C@H](C)C[C@H](N(C)C)[C@H]2O)[C@](C)(OC)C[C@@H](C)C(=O)[C@H](C)[C@H]2N(CCCCn3cnc(-c4cccnc4)c3)C(=O)O[C@]12C`, the AC50 is reported as 0.0039 µM [rising, full curve, poor fit].
For `Cn1cc(-c2cnc3ccc4ccc(CS(=O)(=O)NCc5ccccn5)cc4c(=O)c3c2)cn1`, the AC50 was 19.5 µM [falling, single point].
For `CCOC(=O)C1=CCCCC1S(=O)(=O)Nc1ccc(F)cc1Cl` (stereo not given), the AC50 was 17.4 µM [falling, partial curve, poor fit].
With `O=C(NCCCNC(=O)c1ccc[nH]c1=O)c1cc(-c2ccccc2)on1` the AC50 was 15.5 µM [falling, single point].
For `CN(CCO)C1CCN(c2ccc(Nc3ncc4c5ccnc(F)c5n(C5CCCC5)c4n3)nc2)CC1`, the AC50 was 1.34 µM [falling, partial curve, poor fit].
With `CCOc1ccc(Cc2cc([C@@H]3O[C@H](CO)[C@@H](O)[C@H](O)[C@H]3O)ccc2Cl)cc1` the AC50 was 0.389 µM [rising, full curve].
With `CCc1ccc2nc(Nc3cc(Cc4ccccc4)nc(NC4CCC(O)CC4)n3)sc2c1` (stereo not given) the AC50 was 17.4 µM [falling, single point].
For `CN[C@@H](C)C(=O)N[C@H](C(=O)N1CCC[C@H]1C(=O)Nc1snnc1-c1ccccc1)C1CCCCC1`, the AC50 was 6.16 µM [falling, partial curve, poor fit].
In the case of `COc1cc(OC)c2c(=O)[nH]c(-c3cc(C)c(OCCO)c(C)c3)nc2c1`, the AC50 is reported as 9.77 µM [falling, partial curve].
For `COc1ccc(Oc2cc(NCCC(F)(F)F)c3ncc(-c4ccc(C(=O)NC5CC5)c(C)c4)n3n2)c(F)c1F`, the AC50 was 0.0039 µM [falling, full curve, poor fit].
With `CONC(=O)c1ccccc1Nc1cc(Nc2cc(C)nn2C(C)C)ncc1Cl` the AC50 was 15.5 µM [falling, partial curve, poor fit].
For `CC(C)(C#N)c1cc(Cn2cncn2)cc(C(C)(C)C#N)c1`, the AC50 was 0.219 µM [rising, full curve, poor fit].
